The campaign covered roughly 350,000 compounds. About 31,000 (8.9%) were called active. This list was built around the results that the source calls inconclusive (neither active nor inactive); the mix of calls is not that of the screen. The call rests on the fitted dose curve; in most records, active means well fitted inhibition curve with a large enough effect; inconclusive means small, poorly fitted or top-dose-only effect; inactive means no such curve, though single readings can be large or run the other way. Potencies of inconclusive entries are doubtful fits and often do not repeat.
The compounds below were run against Histone-lysine N-methyltransferase EHMT2 (Homo sapiens) (UniProt Q96KQ7) (assay: qHTS Assay for Inhibitors of Histone Lysine Methyltransferase G9a). Conditions: G9a H3K9 monomethylation, AlphaScreen, 2 h; activity, negative = inhibition: at 59 µM (top of the series) unless noted.
In short: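 Enzyme 20 nM + cpd, 15 min RT; add b-H3K9 pep 500 nM / SAM 20 uM; 2 h RT; anti-H3K9me1 Ab 0.5 ug/mL + SA donor / anti-rabbit acceptor beads 20 ug/mL each, 10 min; AlphaScreen read.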
Further: nearly all actives have a fitted effect of over 75% in size.
On the % scale 0 is the no-effect control and ±100 the full control effect; potency means the concentration at half of the fitted maximal effect; tags describe the fitted curve by direction and shape.

Chain of UniProt Q96KQ7 (Q96KQ7 whole entry, looked up): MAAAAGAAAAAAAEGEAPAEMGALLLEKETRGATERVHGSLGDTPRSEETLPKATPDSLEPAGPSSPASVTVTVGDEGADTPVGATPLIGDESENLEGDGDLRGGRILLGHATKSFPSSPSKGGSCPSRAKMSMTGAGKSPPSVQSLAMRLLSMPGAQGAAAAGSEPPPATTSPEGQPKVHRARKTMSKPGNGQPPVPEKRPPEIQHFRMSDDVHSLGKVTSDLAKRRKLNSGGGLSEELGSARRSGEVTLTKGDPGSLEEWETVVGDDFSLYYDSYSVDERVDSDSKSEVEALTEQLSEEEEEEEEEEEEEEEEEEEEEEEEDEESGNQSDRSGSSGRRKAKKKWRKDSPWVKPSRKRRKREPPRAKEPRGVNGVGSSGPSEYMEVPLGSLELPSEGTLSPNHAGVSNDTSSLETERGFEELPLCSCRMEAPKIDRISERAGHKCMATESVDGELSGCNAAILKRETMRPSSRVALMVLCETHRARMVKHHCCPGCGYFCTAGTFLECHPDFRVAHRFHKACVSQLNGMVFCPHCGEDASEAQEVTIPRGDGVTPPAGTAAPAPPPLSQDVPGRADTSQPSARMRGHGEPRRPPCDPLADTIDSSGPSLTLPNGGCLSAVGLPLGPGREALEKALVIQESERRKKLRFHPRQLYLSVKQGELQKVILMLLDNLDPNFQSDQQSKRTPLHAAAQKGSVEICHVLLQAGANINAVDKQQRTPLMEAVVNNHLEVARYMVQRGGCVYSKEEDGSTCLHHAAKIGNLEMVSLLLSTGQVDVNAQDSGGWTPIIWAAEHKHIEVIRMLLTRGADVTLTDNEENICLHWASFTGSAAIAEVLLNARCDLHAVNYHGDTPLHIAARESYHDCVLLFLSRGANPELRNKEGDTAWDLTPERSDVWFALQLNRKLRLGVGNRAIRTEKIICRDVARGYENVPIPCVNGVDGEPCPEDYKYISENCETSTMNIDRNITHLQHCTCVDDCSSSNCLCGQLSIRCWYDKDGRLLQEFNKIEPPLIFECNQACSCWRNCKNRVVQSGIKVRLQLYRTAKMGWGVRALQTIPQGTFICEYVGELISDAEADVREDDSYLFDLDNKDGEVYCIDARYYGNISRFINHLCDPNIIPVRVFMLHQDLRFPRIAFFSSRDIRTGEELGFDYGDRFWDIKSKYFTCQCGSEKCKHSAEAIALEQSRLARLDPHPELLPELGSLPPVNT

| Structure (SMILES) | Potency | activity, negative = inhibition |
| --- | --- | --- |
| COCc1nnc(NC(=O)c2ccccc2Oc2ccccc2)s1 | inconclusive: 89.1 µM [inhibitor, single point] | – |
| Cn1c(CO)cnc1SCC(=O)c1ccc(Br)cc1 | inconclusive: 89.1 µM [inhibitor, single point] | – |
| CCC1(C)NC(=O)N(CC(=O)Nc2sc3c(c2C(=O)OC)CCCCC3)C1=O (stereo not given) | active: 50.1 µM | – |
| Cc1cc2c3c(c1C)C(=O)C(=O)N3C(C)(C)CC2C (stereo not given) | inconclusive: 20 µM [inhibitor, full curve] | – |
| COc1ccc(-c2oc3ncn4nc(-c5cccc(C)c5)nc4c3c2-c2ccc(OC)cc2)cc1 | inconclusive: 0.158 µM [inhibitor, partial curve, poor fit] | – |
| COc1ccc(OCC(=O)NCCCCCCNC(=O)COc2ccc(OC)cc2)cc1 | – | inactive: 2.53% [at 102 µM] |
| COc1ccc(-c2cc([N+](=O)[O-])ccc2OCC(=O)N(C)CC(=O)Nc2ccc(C)cc2)cc1 | inconclusive: 50.1 µM [inhibitor, partial curve, poor fit] | – |
| CC1(C)C2CCC1(CS(=O)(=O)Nc1ccc(S(=O)(=O)NC3CCCCC3)cc1)C(=O)C2 (stereo not given) | inconclusive: 89.1 µM [inhibitor, single point] | – |
| Cc1ccc([C@@H]2[C@@H]3C(=O)N(C)C(=O)[C@@H]3[C@]3(C)C(=O)N(CCO)CC(=O)N23)o1 | active: 44.7 µM | – |
| O=c1[nH]c(-c2ccc(F)cc2)nc2c1sc(=S)n2-c1ccccc1 | active: 39.8 µM | – |
| O=C(Nc1ccccc1Cl)N1CCN(c2ccc3nnc(-c4ccccc4)n3n2)CC1 | active: 50.1 µM | – |
| CN(C)CCCN(C(=O)COc1ccccc1)c1nc2c(Cl)cccc2s1 | active: 31.6 µM | – |
| Oc1ccccc1-c1nnc(COc2ccc(Cl)cc2Cl)o1 | inconclusive: 39.8 µM [inhibitor, single point] | – |
| COc1ccc(C(=O)OCC(=O)NC2CC2)cc1S(=O)(=O)N(C)Cc1ccccc1 | active: 50.1 µM | – |
| CCN(CC)CCN1C(=O)C(=O)/C(=C(/O)c2ccc(S(=O)(=O)N3CCOCC3)cc2)C1c1ccc(C)cc1 (stereo not given) | inconclusive: 50.1 µM [inhibitor, partial curve, poor fit] | – |
| Cc1csc(NC(=O)CSc2sc3c(O)cc(=O)[nH]c3c2C#N)n1 | active: 50.1 µM | – |
| Cc1ccn2c(Nc3ccc(F)cc3)c(-c3ccc(C)o3)nc2c1 | – | inactive: -45.1% |
| O=C(CSc1ncn[nH]1)NC12CC3CC(CC(C3)C1)C2 | inconclusive: 3.55 µM [inhibitor, partial curve, poor fit] | – |
| C/C(Cl)=C/Cn1c(NCCN(C)C)nc2c1c(=O)n(C)c(=O)n2C | – | inconclusive: -53.3% [inhibitor] |
| CCOC(=O)C1=NNC(C(=O)c2ccc(C)cc2)C1c1ccc(OC)cc1 (stereo not given) | active: 50.1 µM | – |
| CC(C)CN(C(=O)COC(=O)Cc1c[nH]c2ccccc12)c1c(N)n(Cc2ccccc2)c(=O)[nH]c1=O | – | inactive: -1.75% [at 0.501 µM] |
| CCn1c(SCC(=O)Nc2cc(C)ccc2C)nc2c(c1=O)SC(C)C2 (stereo not given) | inconclusive: 35.5 µM [inhibitor, partial curve, poor fit] | – |

| Structure (SMILES) | Potency | activity, negative = inhibition |
| --- | --- | --- |
| CCOc1ccccc1C1C2C(=O)N(c3ccccc3)C(=O)C2ON1c1ccccc1 (stereo not given) | inconclusive: 39.8 µM [inhibitor, single point] | – |
| CCOC(=O)c1c(C(F)(F)F)cc(-c2ccc(F)cc2)nc1C | – | inactive: 92% [at 102 µM] |
| CC(C)Cc1ccc(S(=O)(=O)N2CCCC2)cc1 | – | inactive: 38.9% |
| Cc1cc(C)c2[nH]c(=O)c(C(c3nnnn3Cc3ccc4c(c3)OCO4)N3CCCCC3)cc2c1 (stereo not given) | inconclusive: 2.82 µM [inhibitor, partial curve, poor fit] | – |
| COc1ccc(C2=NN(CN3C(=O)C(=O)c4ccccc43)C(c3ccc(C)cc3)C2)cc1 (stereo not given) | inconclusive: 17.8 µM [inhibitor, partial curve, poor fit] | – |
| COc1cc2nc(SCc3ccc(Cl)cc3)n3nc(CCn4nc(C)cc4C)nc3c2cc1OC | – | inactive: -33% |
| Cc1nn(CC(=O)NCCc2ccco2)c(=O)c2nn(-c3ccccc3)c(C)c12 | inconclusive: 79.4 µM [inhibitor, single point] | – |
| CCCCOc1ccc(OC(=O)c2sc3ncn(Cc4cccc(F)c4)c(=O)c3c2C)cc1 | – | inactive: 2.96% |
| N#CC1=C(N)Oc2cc(N)ccc2C1c1ccccc1F (stereo not given) | inconclusive: 50.1 µM [inhibitor, partial curve, poor fit] | – |
| O=C(O)COc1ccccc1/C=N/NC(=O)CSc1nnc(-c2ccc(Cl)cc2)n1C1CCCCC1 | – | inactive: -0.326% [at 102 µM] |
| COc1ccc(N2CCN(CCNC(=O)c3ccc4nc5ccccc5c(=O)n4c3)CC2)cc1 | – | inactive: 6.75% [at 102 µM] |
| CCOc1ccccc1NC1c2ccccc2C(=O)N1c1ccc(C)cn1 (stereo not given) | inconclusive: 89.1 µM [inhibitor, single point] | – |
| O=C(NN1C(=O)c2ccccc2NC1c1ccccc1OCc1ccccc1)c1ccncc1 (stereo not given) | inconclusive: 28.2 µM [inhibitor, partial curve, poor fit] | – |
| CCCCCC(=O)N/N=C(\C)c1ccccn1 | – | inconclusive: -90.2% [inhibitor] [at 12.7 µM] |
| CC1CCC(NC(=O)CN2C(=O)NC3(CCCCC3C)C2=O)CC1 (stereo not given) | – | inactive: 13.8% [at 12.7 µM] |
| CNC(=O)NC(=O)CSc1ccc(S(=O)(=O)N2CCOCC2)cn1 | inconclusive: 0.631 µM [inhibitor, partial curve, poor fit] | – |
| Cc1nc2c3cc(F)ccc3n(Cc3ccccc3)c2s1 | inconclusive: 20 µM [inhibitor, single point] | – |
| CS(=O)(=O)Nc1nc2n(n1)C(c1ccccc1)C=C(c1ccc(Br)cc1)N2 (stereo not given) | inconclusive: 35.5 µM [inhibitor, single point] | – |
| CC(=O)N1CCc2c(sc(NC(=O)c3ccc4c(c3)OCCO4)c2C#N)C1 | inconclusive: 44.7 µM [inhibitor, partial curve] | – |
| O=C(NCCO)c1ccccc1O | inconclusive: 39.8 µM [inhibitor, partial curve, poor fit] | – |
| CC12CCC(=O)N1C(C(=O)NCCN1C(=O)S/C(=C\c3ccccc3Cl)C1=O)CS2 (stereo not given) | – | inactive: -2.51% [at 12.7 µM] |
| Cc1ccc(C(=O)c2oc3nc(C)cc(C)c3c2N)cc1 | inconclusive: 50.1 µM [inhibitor, partial curve, poor fit] | – |

| Structure (SMILES) | Potency | activity, negative = inhibition |
| --- | --- | --- |
| CC(C)c1ccc(OCC(=O)N2CCN(C(=O)c3ccco3)CC2)cc1 | inconclusive: 2.82 µM [inhibitor, full curve] | – |
| COC(=O)[C@H](CC(C)C)NC(=O)NCCC1=CCCCC1 | inconclusive: 56.2 µM [inhibitor, partial curve, poor fit] | – |
| Cc1c(N=C2N=C(NC(=O)c3cccs3)c3ccccc32)c(=O)n(-c2ccccc2)n1C | inconclusive: 44.7 µM [inhibitor, partial curve] | – |
| CCc1ccc(NC(=O)CSc2ccc(-c3sc(C)nc3C)nn2)cc1 | inconclusive: 28.2 µM [inhibitor, partial curve] | – |
| N=c1sccn1CC(=O)Nc1ccc(S(N)(=O)=O)cc1 | – | inactive: 1.12% [at 102 µM] |
| CCCCCc1nnc(NC(=O)CS(=O)(=O)Cc2ccccc2)s1 | inconclusive: 39.8 µM [inhibitor, single point] | – |
| Cc1cc(O)c(C(c2ccccc2)N2CCC(C)CC2)c(=O)n1Cc1ccco1 (stereo not given) | inconclusive: 25.1 µM [inhibitor, partial curve, poor fit] | – |
| COc1cc(OC)c2c(-c3cccc(-c4ccc(NC(C)=O)cc4)c3)cc(=O)oc2c1 | inconclusive: 17.8 µM [inhibitor, partial curve] | – |
| CCN(Cc1ccccc1)C(=O)CCS(=O)(=O)c1ccc2c(c1)NC(=O)CO2 | – | inactive: 9.4% [at 102 µM] |
| COc1ccc(N2CCN(C(=O)c3ccc(N4C(=O)NC5CC4(C)Oc4ccccc45)cc3)CC2)cc1 (stereo not given) | inconclusive: 50.1 µM [inhibitor, partial curve, poor fit] | – |
| CN(C)S(=O)(=O)c1cccc(NC(=S)N/N=C/C2CC=CCC2)c1 (stereo not given) | active: 5.62 µM | – |
| CCCCn1c(N)c(N(CCOC)C(=O)C2CCN(c3ncnc4sc(C)c(C)c34)CC2)c(=O)[nH]c1=O | inconclusive: 56.2 µM [inhibitor, partial curve] | – |
| O=C1C2C3C=CC(C2C(=O)N1c1cccc(O)c1)C1C2C(=O)N(c4cccc(O)c4)C(=O)C2C31 (stereo not given) | inconclusive: 56.2 µM [inhibitor, single point] | – |
| COC(=O)c1cc(Br)c(=O)n(Cc2ccc(C(=O)O)cc2)c1 | inconclusive: 89.1 µM [inhibitor, partial curve, poor fit] | – |
| COc1ccc(C2C(C(C)=O)=C(C)N=c3s/c(=C\c4ccco4)c(=O)n32)c(OC)c1 (stereo not given) | active: 11.2 µM | – |
| Cn1c(=O)c2c(nc(OCc3ccccc3)n2C)n(C)c1=O | inconclusive: 0.282 µM [inhibitor, partial curve, poor fit] | – |
| CN(C)c1ccc(C(CNC(=O)c2ccc(C(C)(C)C)cc2)N2CCCC2)cc1 (stereo not given) | active: 15.8 µM | – |
| O=C(COC(=O)c1cccc(Cl)c1Cl)NCc1cccs1 | – | inconclusive: -57.1% [inhibitor] [at 12.7 µM] |
| Cc1cc(S(=O)(=O)Nc2c(C(=O)O)[nH]c3ccccc23)ccc1F | inconclusive: 56.2 µM [inhibitor, partial curve, poor fit] | – |
| C/C(CCC(C)C)=N\NS(=O)(=O)c1ccc(C)c([N+](=O)[O-])c1 | active: 12.6 µM | – |
| CCN(C(=O)c1sc2nc3n(c(=O)c2c1C)CCCC3)c1ccccc1F | active: 12.6 µM | – |
